# Test results as given in the supplement of paper PMC8728848.
# Some of the results follow.
# B1: CFEM-PPm (Pichia pastoris), F2QPV1 (protein)
# chain: AVATPPACLLACAAEVVKESSDCDALNNIQCICENEGSAIHACLESTCPDGLSSTALQSFEDVCE
# Experiments:
# Experiment in all cases: glycan array binding signal (z-score within array); higher = stronger binding
# Conditions in all cases: glycan notation: IUPAC condensed, linker removed
# [1] = target: Neu5Ac(a2-3)Gal(b1-3)GlcNAc6S
# Summary of the method: (§1)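 From the Consortium for Functional Glycomics database, 3228 arrays were curated, keeping only those whose protein sequence was available. Binding is given as a within-array Z-score averaged across arrays sharing a protein sequence and across linkers. Negative Z-scores can be read as non-binding.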
# [2] = target: Neu5Ac(a2-3)Gal(b1-3)[Fuc(a1-4)]GlcNAc
# Summary of the method: as §1
# [3] = target: Neu5Ac(a2-3)Gal(b1-3)[Fuc(a1-4)]GlcNAc(b1-3)Gal(b1-3)[Fuc(a1-4)]GlcNAc
# Summary of the method: as §1
# [4] = target: Neu5Ac(a2-3)Gal(b1-3)[Fuc(a1-4)]GlcNAc(b1-3)Gal(b1-4)[Fuc(a1-3)]GlcNAc
# Summary of the method: as §1
# [5] = target: Neu5Ac(a2-3)Gal(b1-3)[GlcNAc(b1-6)]GalNAc
# Summary of the method: as §1
# [6] = target: Neu5Ac(a2-3)Gal(b1-3)[Neu5Ac(a2-6)]GalNAc
# Summary of the method: as §1
# [7] = target: Neu5Ac(a2-3)Gal(b1-3)[Neu5Ac(a2-6)]GlcNAc(b1-3)[Fuc(a1-3)[Gal(b1-4)]GlcNAc(b1-6)]Gal(b1-4)Glc
# Summary of the method: as §1
# [8] = target: Neu5Ac(a2-3)Gal(b1-3)]Neu5Ac(a2-3)Gal(b1-4)]GlcNAc
# Summary of the method: as §1
# Neu5Ac(a2-3)Gal(b1-4)Glc = target: Neu5Ac(a2-3)Gal(b1-4)Glc
# Summary of the method: as §1
# [9] = target: Neu5Ac(a2-3)Gal(b1-4)GlcNAc
# Summary of the method: as §1
# [10] = target: Neu5Ac(a2-3)Gal(b1-4)GlcNAc(b1-2)Man
# Summary of the method: as §1
# [11] = target: Neu5Ac(a2-3)Gal(b1-4)GlcNAc(b1-2)Man(a1-3)[GlcNAc(b1-4)][Neu5Ac(a2-3)Gal(b1-4)GlcNAc(b1-2)Man(a1-6)]Man(b1-4)GlcNAc(b1-4)GlcNAc
# Summary of the method: as §1
# [12] = target: Neu5Ac(a2-3)Gal(b1-4)GlcNAc(b1-2)Man(a1-3)[Neu5Ac(a2-3)Gal(b1-4)GlcNAc(b1-2)Man(a1-6)]Man(b1-4)GlcNAc(b1-4)GlcNAc
# Summary of the method: as §1
# [13] = target: Neu5Ac(a2-3)Gal(b1-4)GlcNAc(b1-2)Man(a1-3)[Neu5Ac(a2-3)Gal(b1-4)GlcNAc(b1-2)Man(a1-6)]Man(b1-4)GlcNAc(b1-4)[Fuc(a1-6)]GlcNAc
# Summary of the method: as §1
# [14] = target: Neu5Ac(a2-3)Gal(b1-4)GlcNAc(b1-2)Man(a1-3)[Neu5Ac(a2-6)Gal(b1-4)GlcNAc(b1-2)Man(a1-6)]Man(b1-4)GlcNAc(b1-4)GlcNAc
# Summary of the method: as §1
# [15] = target: Neu5Ac(a2-3)Gal(b1-4)GlcNAc(b1-2)[Neu5Ac(a2-3)Gal(b1-4)GlcNAc(b1-4)]Man(a1-3)[GlcNAc(b1-4)][Neu5Ac(a2-3)Gal(b1-4)GlcNAc(b1-2)[Neu5Ac(a2-3)Gal(b1-4)GlcNAc(b1-6)]Man(a1-6)]Man(b1-4)GlcNAc(b1-4)GlcNAc
# Summary of the method: as §1
# [16] = target: Neu5Ac(a2-3)Gal(b1-4)GlcNAc(b1-2)[Neu5Ac(a2-3)Gal(b1-4)GlcNAc(b1-4)]Man(a1-3)[GlcNAc(b1-4)][Neu5Ac(a2-3)Gal(b1-4)GlcNAc(b1-4)Man(a1-6)]Man(b1-4)GlcNAc(b1-4)GlcNAc
# Summary of the method: as §1
# [17] = target: Neu5Ac(a2-3)Gal(b1-4)GlcNAc(b1-2)[Neu5Ac(a2-3)Gal(b1-4)GlcNAc(b1-6)]Man(a1-6)[Neu5Ac(a2-3)Gal(b1-4)GlcNAc(b1-2)Man(a1-3)]Man(b1-4)GlcNAc(b1-4)GlcNAc
# Summary of the method: as §1
# [18] = target: Neu5Ac(a2-3)Gal(b1-4)GlcNAc(b1-2)[Neu5Ac(a2-3)Gal(b1-4)GlcNAc(b1-6)]Man(a1-6)[Neu5Ac(a2-3)Gal(b1-4)GlcNAc(b1-2)Man(a1-3)][GlcNAc(b1-4)]Man(b1-4)GlcNAc(b1-4)GlcNAc
# Summary of the method: as §1
# [19] = target: Neu5Ac(a2-3)Gal(b1-4)GlcNAc(b1-3)Gal
# Summary of the method: as §1
# [20] = target: Neu5Ac(a2-3)Gal(b1-4)GlcNAc(b1-3)Gal(b1-3)GlcNAc
# Summary of the method: as §1
# [21] = target: Neu5Ac(a2-3)Gal(b1-4)GlcNAc(b1-3)Gal(b1-4)GlcNAc
# Summary of the method: as §1
# [22] = target: Neu5Ac(a2-3)Gal(b1-4)GlcNAc(b1-3)Gal(b1-4)GlcNAc(b1-2)Man(a1-3)[Neu5Ac(a2-3)Gal(b1-4)GlcNAc(b1-3)Gal(b1-4)GlcNAc(b1-2)Man(a1-6)]Man(b1-4)GlcNAc(b1-4)GlcNAc
# Summary of the method: as §1
# [23] = target: Neu5Ac(a2-3)Gal(b1-4)GlcNAc(b1-3)Gal(b1-4)GlcNAc(b1-3)Gal(b1-4)GlcNAc
# Summary of the method: as §1
# [24] = target: Neu5Ac(a2-3)Gal(b1-4)GlcNAc(b1-3)Gal(b1-4)GlcNAc(b1-3)Gal(b1-4)GlcNAc(b1-2)Man(a1-3)[Neu5Ac(a2-3)Gal(b1-4)GlcNAc(b1-3)Gal(b1-4)GlcNAc(b1-3)Gal(b1-4)GlcNAc(b1-2)Man(a1-6)]GalNAc
# Summary of the method: as §1
# [25] = target: Neu5Ac(a2-3)Gal(b1-4)GlcNAc(b1-3)Gal(b1-4)GlcNAc(b1-3)GalNAc
# Summary of the method: as §1
# [26] = target: Neu5Ac(a2-3)Gal(b1-4)GlcNAc(b1-3)Gal(b1-4)GlcNAc(b1-3)[Neu5Ac(a2-3)Gal(b1-4)GlcNAc(b1-3)Gal(b1-4)GlcNAc(b1-6)]GalNAc
# Summary of the method: as §1
# [27] = target: Neu5Ac(a2-3)Gal(b1-4)GlcNAc(b1-3)Gal(b1-4)GlcNAc(b1-6)[Gal(b1-3)]GalNAc
# Summary of the method: as §1
# [28] = target: Neu5Ac(a2-3)Gal(b1-4)GlcNAc(b1-3)Gal(b1-4)[Fuc(a1-3)]GlcNAc
# Summary of the method: as §1
# [29] = target: Neu5Ac(a2-3)Gal(b1-4)GlcNAc(b1-3)GalNAc
# Summary of the method: as §1
# [30] = target: Neu5Ac(a2-3)Gal(b1-4)GlcNAc(b1-3)[Neu5Ac(a2-3)Gal(b1-4)GlcNAc(b1-6)]GalNAc
# Summary of the method: as §1
# [31] = target: Neu5Ac(a2-3)Gal(b1-4)GlcNAc(b1-6)GalNAc
# Summary of the method: as §1
# [32] = target: Neu5Ac(a2-3)Gal(b1-4)GlcNAc(b1-6)[Gal(b1-3)]GalNAc
# Summary of the method: as §1
# [33] = target: Neu5Ac(a2-3)Gal(b1-4)GlcNAc(b1-6)[Neu5Ac(a2-3)Gal(b1-3)]GalNAc
# Summary of the method: as §1
# [34] = target: Neu5Ac(a2-3)Gal(b1-4)GlcNAc6S
# Summary of the method: as §1
# [35] = target: Neu5Ac(a2-3)Gal(b1-4)[Fuc(a1-3)]GlcNAc
# Summary of the method: as §1
# [36] = target: Neu5Ac(a2-3)Gal(b1-4)[Fuc(a1-3)]GlcNAc(b1-2)Man
# Summary of the method: as §1
# [37] = target: Neu5Ac(a2-3)Gal(b1-4)[Fuc(a1-3)]GlcNAc(b1-3)Gal
# Summary of the method: as §1
# [38] = target: Neu5Ac(a2-3)Gal(b1-4)[Fuc(a1-3)]GlcNAc(b1-3)Gal(b1-4)GlcNAc
# Summary of the method: as §1
# [39] = target: Neu5Ac(a2-3)Gal(b1-4)[Fuc(a1-3)]GlcNAc(b1-3)Gal(b1-4)[Fuc(a1-3)]GlcNAc(b1-3)Gal(b1-4)[Fuc(a1-3)]GlcNAc
# Summary of the method: as §1
# [40] = target: Neu5Ac(a2-3)Gal(b1-4)[Fuc(a1-3)]GlcNAc(b1-3)GalNAc
# Summary of the method: as §1
# [41] = target: Neu5Ac(a2-3)Gal(b1-4)[Fuc(a1-3)]GlcNAc(b1-6)[Gal(b1-3)]GalNAc
# Summary of the method: as §1
# [42] = target: Neu5Ac(a2-3)Gal(b1-4)[Fuc(a1-3)]GlcNAc(b1-6)[Neu5Ac(a2-3)Gal(b1-3)]GalNAc
# Summary of the method: as §1
# [43] = target: Neu5Ac(a2-3)Gal(b1-4)[Fuc(a1-3)]GlcNAc6S
# Summary of the method: as §1
# [44] = target: Neu5Ac(a2-3)Gal6S(b1-4)GlcNAc
# Summary of the method: as §1
binder,measurement,setting,value
B1,glycan array binding signal (z-score),[1],-0.363
same,glycan array binding signal (z-score),[2],-0.244
same,glycan array binding signal (z-score),[3],-0.227
same,glycan array binding signal (z-score),[4],-0.309
same,glycan array binding signal (z-score),[5],-0.262
same,glycan array binding signal (z-score),[6],-0.098
same,glycan array binding signal (z-score),[7],-0.239
same,glycan array binding signal (z-score),[8],-0.288
same,glycan array binding signal (z-score),Neu5Ac(a2-3)Gal(b1-4)Glc,-0.127
same,glycan array binding signal (z-score),[9],-0.183
same,glycan array binding signal (z-score),[10],-0.133
same,glycan array binding signal (z-score),[11],-0.184
same,glycan array binding signal (z-score),[12],-0.218
same,glycan array binding signal (z-score),[13],-0.229
same,glycan array binding signal (z-score),[14],-0.367
same,glycan array binding signal (z-score),[15],-0.328
same,glycan array binding signal (z-score),[16],-0.234
same,glycan array binding signal (z-score),[17],-0.28
same,glycan array binding signal (z-score),[18],-0.405
same,glycan array binding signal (z-score),[19],-0.315
same,glycan array binding signal (z-score),[20],-0.197
same,glycan array binding signal (z-score),[21],-0.249
same,glycan array binding signal (z-score),[22],-0.093
same,glycan array binding signal (z-score),[23],-0.33
same,glycan array binding signal (z-score),[24],0.587
same,glycan array binding signal (z-score),[25],-0.282
same,glycan array binding signal (z-score),[26],-0.268
same,glycan array binding signal (z-score),[27],0.598
same,glycan array binding signal (z-score),[28],-0.228
same,glycan array binding signal (z-score),[29],-0.264
same,glycan array binding signal (z-score),[30],-0.046
same,glycan array binding signal (z-score),[31],-0.282
same,glycan array binding signal (z-score),[32],0.188
same,glycan array binding signal (z-score),[33],-0.376
same,glycan array binding signal (z-score),[34],-0.23
same,glycan array binding signal (z-score),[35],-0.366
same,glycan array binding signal (z-score),[36],0.005
same,glycan array binding signal (z-score),[37],0.048
same,glycan array binding signal (z-score),[38],0.148
same,glycan array binding signal (z-score),[39],-0.34
same,glycan array binding signal (z-score),[40],0.862
same,glycan array binding signal (z-score),[41],0.784
same,glycan array binding signal (z-score),[42],0.431
same,glycan array binding signal (z-score),[43],-0.308
same,glycan array binding signal (z-score),[44],-0.43
